Source: PubChem BioAssay (Tox21)
Several values for one entry are separate records, joined by “and”; a condition that tells them apart may be missing. Equal entries are not always repeated. The inconclusive results got no clear call from the source; some entries with a clear call stand among them for comparison. Potencies beside an inconclusive call are fits to weak or partial responses and may not hold up. Activity calls are given as the source filed them. Unless noted, calls follow the shape of the dose curve; as a rule, active = well fitted curve in the direction sought with a large enough effect in the repeat runs; inconclusive = weak or mixed curves; inactive = no such curve, though single readings can be large; an effect the other way counts as inactive or inconclusive.

Assays:
[1] = qHTS assay to identify small molecule antagonists of the retinoid-related orphan receptor gamma (ROR-gamma) signaling pathway - cell viability counter screen (AID 1159520); settings: Tet-on RORgamma CHO cells viability, ATP luminescence, 16 h; series mostly up to 92.4 µM; also: nearly all actives have a fitted effect of over 50% in size
In short: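 Tet-on ROR gamma CHO cells were given compounds for 2 hr, then doxycycline hyclate at 1 uM final, and incubated 16 hr at 37 C. Viability was measured as ATP content by CellTiter-Glo luminescence.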

[2] = biological target: Nuclear receptor ROR-gamma (Homo sapiens) (UniProt P51449); test: qHTS assay to identify small molecule antagonists of the retinoid-related orphan receptor gamma (ROR-gamma) signaling pathway (AID 1159521; also: nearly all actives have a fitted effect of over 50% in size); settings: Tet-on RORgamma CHO cells, RORE-luciferase, 16 h; series mostly up to 92.4 µM
In short: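 Readout: ONE-Glo luciferase luminescence, 30 min at room temperature. System: Tet-on RORγ CHO, RORE-LUC. Sequence: compound 2 h, doxycycline 1 uM final, 16 h at 37 C.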

[3] = qHTS assay to identify small molecule agonists of the AP-1 signaling pathway (AID 1159526; calls by dose curve; as to activation: % is scaled to controls: 0 for no effect and ±100 for the full control effect); settings: ME-180 (cervical carcinoma) AP-1-bla reporter, beta-lactamase FRET ratio, 5 h; activation: at 76.8 µM (top of the series) unless noted
[4] = biological target: Retinoic acid receptor RXR-alpha (Homo sapiens) (UniProt P19793); test: qHTS assay to identify small molecule agonists of the RXR signaling pathway (AID 1159527; calls by dose curve; also: nearly all actives have a fitted effect of over 35% in size; as to activation: % is scaled to controls: 0 for no effect and ±100 for the full control effect); settings: HEK293T RXRa-UAS-bla, beta-lactamase ratio, 16 h; activation: at 76.8 µM (top of the series) unless noted
In short: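 Reporter activation is measured as beta-lactamase activity via FRET substrate cleavage (emission 460/530 nm) in HEK 293T cells expressing an RXR-alpha-driven bla construct, following 16 hr compound exposure at 37 C.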

[5] = qHTS assay to identify small molecule antagonists of the retinoic acid receptor (RAR) signaling pathway (AID 1159552; also: nearly all actives have a fitted effect of over 50% in size); settings: C3RL4 RARE luciferase reporter, retinol-stimulated, 6 h; series mostly up to 92.4 µM
In short: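 Overnight-plated C3RL4 reporter cells get compound, then retinol to 1 uM final; plates sit 6 hr at 37 C, 5% CO2. A luciferase reagent is added and light output recorded after 30 min at room temperature.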

[6] = qHTS assay to identify small molecule antagonists of the retinoid acid receptor (RAR) signaling pathway - cell viability counter screen (AID 1159551); settings: C3RL4 cells viability, ATP luminescence (CellTiter-Glo), 6 h; series mostly up to 92.4 µM; also: nearly all actives have a fitted effect of over 35% in size
In short: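 Luminescent ATP quantitation (CellTiter-Glo) gave cell viability in C3RL4 cells exposed to test chemicals for 6 h at 37 C alongside 1 uM final retinol.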

[7] = qHTS assay to identify small molecule agonists of the RXR signaling pathway - cell viability counter screen (AID 1159529); settings: RXR-alpha-bla HEK293T viability, CellTiter-Glo, 16 h; series mostly up to 76.8 µM; also: nearly all actives have a fitted effect of over 50% in size
In short: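 Tox21 10K compounds were tested for cytotoxicity against GeneBLAzer RXR-alpha HEK 293T cells grown in 2% charcoal-stripped FBS. Exposure lasted 16 hr at 37 C, 5% CO2; viability read by CellTiter-Glo luminescence.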

[8] = qHTS assay to identify small molecule agonists of the retinoic acid receptor (RAR) signaling pathway (AID 1159553); settings: C3RL4 RARE luciferase reporter, agonist, 6 h; activation: at 73.3 µM (top of the series) unless noted; as to activation: % is scaled to controls: 0 for no effect and ±100 for the full control effect
In short: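 Luminescence from a RARE-driven luciferase reporter in C3RL4 cells served as the read-out, measured after 30 min with detection reagent at room temperature. Compounds in DMSO were applied for 6 hr at 37 C following overnight seeding.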
Potency is read from the fitted curve at half-maximal effect; tags tell the direction and shape of the fitted curve or compound fluorescence and quenching.

UniProt P19793, sequence (P19793 whole entry, looked up): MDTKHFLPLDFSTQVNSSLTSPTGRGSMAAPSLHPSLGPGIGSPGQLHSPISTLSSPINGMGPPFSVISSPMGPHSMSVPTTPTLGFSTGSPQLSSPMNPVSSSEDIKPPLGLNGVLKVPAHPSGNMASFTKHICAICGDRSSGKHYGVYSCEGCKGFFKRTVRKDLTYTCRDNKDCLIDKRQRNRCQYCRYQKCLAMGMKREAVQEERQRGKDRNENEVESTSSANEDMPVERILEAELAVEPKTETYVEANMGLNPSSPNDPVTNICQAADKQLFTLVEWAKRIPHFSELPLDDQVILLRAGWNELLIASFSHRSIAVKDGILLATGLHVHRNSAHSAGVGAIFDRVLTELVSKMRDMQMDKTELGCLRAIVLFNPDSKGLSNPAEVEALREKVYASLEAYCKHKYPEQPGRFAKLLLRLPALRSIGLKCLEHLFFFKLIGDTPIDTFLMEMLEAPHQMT

With O=[Se]=O the Potency [1] was inconclusive: 34.1 µM [cytotoxic, single point] and the Potency [2] was inconclusive: 38.3 µM [inhibitor, partial curve, poor fit].

In the case of Nc1ccc(Cl)cc1C(=O)c1ccccc1F, the Potency [1] is reported as “inactive”, the Potency [3] is reported as inconclusive: 21.3 µM and the Potency [4] is reported as inconclusive: 23.9 µM [inhibitor, partial curve, poor fit]. For the same compound, the Potency [5] was inconclusive: 29.8 µM [inhibitor, partial curve, poor fit].

For O=C(c1ccccc1)C(Cl)Cl, the Potency [1] was inconclusive: 61.1 µM [cytotoxic, partial curve, poor fit], the Potency [3] was inconclusive: 27.5 µM and the Potency [4] was inconclusive: 0.977 µM [inhibitor, full curve, poor fit]. For the same compound, the Potency [6] was inconclusive: 61.1 µM [rising, partial curve].

For CCCCN(N=O)C(=N)N[N+](=O)[O-], the Potency [1] was inconclusive: 62.4 µM [cytotoxic], the Potency [3] was inconclusive: 50 µM and the Potency [7] was inconclusive: 44.6 µM [cytotoxic, partial curve, poor fit]. For the same compound, the Potency [8] was “inactive”.

For O=C(O)C(Cl)Br (stereo unspecified), the Potency [1] was “inactive” and the Potency [4] was “inactive”.

In the case of CCCCCCI, the Potency [1] is reported as “inactive” and the Potency [3] is reported as “inactive”.

For O=C(O)CCCc1ccc(N(CCCl)CCCl)cc1, the Potency [1] was inconclusive: 61.4 µM [cytotoxic, partial curve, poor fit] and inconclusive: 61.1 µM [cytotoxic, single point] and inconclusive: 29.8 µM [cytotoxic, single point] and the Potency [3] was inconclusive: 43.8 µM [partial curve, poor fit] and inconclusive: 61.7 µM [activator, partial curve, poor fit].

In the case of C[As+](C)(C)CC(=O)[O-], the Potency [1] is reported as “inactive” and the Potency [3] is reported as active: 43.6 µM.

For CCCCCCCCCCCCCCCCCC(=O)O, the Potency [1] was “inactive”, the activation [3] was inconclusive: 24.5% and the Potency [6] was “inactive”. The Potency [8] was inconclusive: 60.7 µM [activator, partial curve, poor fit].

In the case of CCC[N+]1(C)CCCCC1, the Potency [1] is reported as “inactive” and the activation [3] is reported as inconclusive: 24%.

For CCOP(=S)(OCC)Oc1ncn(-c2ccccc2)n1, the Potency [1] was “inactive”, the Potency [3] was “inactive” and the Potency [4] was inconclusive: 34.7 µM [partial curve, poor fit]. For the same compound, the Potency [8] was inconclusive: 61.1 µM [activator].

In the case of N#Cc1ccc(Cl)cc1, the Potency [1] is reported as inconclusive: 24.3 µM [rising, partial curve, poor fit] and the Potency [4] is reported as “inactive”.

With N#Cc1nn(-c2c(Cl)cc(C(F)(F)F)cc2Cl)c(N)c1S(=O)C(F)(F)F (stereo unspecified) the Potency [1] was inconclusive: 4.35 µM [cytotoxic, partial curve, poor fit] and inactive, the Potency [3] was inconclusive: 55.3 µM [falling, single point] and the Potency [4] was inconclusive: 9.83 µM [inhibitor, full curve] and inconclusive: 30.1 µM [inhibitor, partial curve, poor fit]. For the same compound, the Potency [5] was inconclusive: 43.5 µM [inhibitor, partial curve] and inconclusive: 26.6 µM [inhibitor, partial curve, poor fit] and the Potency [8] was inconclusive: 0.0062 µM [activator, full curve, poor fit].

With CCOC(=O)CCN(SN(C)C(=O)Oc1cccc2c1OC(C)(C)C2)C(C)C the Potency [1] was inconclusive: 54.5 µM [cytotoxic, partial curve], the Potency [3] was inconclusive: 49 µM and the Potency [4] was inconclusive: 24.5 µM [rising, partial curve, poor fit].

With O=S(=O)(C(Cl)(Cl)Cl)C(Cl)(Cl)Cl the Potency [1] was active: 17.2 µM, the Potency [3] was inconclusive: 54.9 µM [cytotoxic, single point] and the Potency [4] was inconclusive: 61.6 µM [cytotoxic, single point]. For the same compound, the Potency [6] was active: 61.1 µM.

For O=C(Cl)CCl, the Potency [1] was “inactive” and the Potency [4] was “inactive”.

With CCCCOC(=O)COC(=O)c1ccccc1C(=O)OCCCC the Potency [1] was “inactive” and the Potency [3] was inconclusive: 19.5 µM [activator, partial curve, poor fit].

For O=C1OC(c2ccc(O)c(S(=O)(=O)O)c2)(c2ccc(O)c(S(=O)(=O)O)c2)c2c(Br)c(Br)c(Br)c(Br)c21, the Potency [1] was “inactive”, the Potency [3] was inconclusive: 21.3 µM [activator, partial curve, poor fit] and the Potency [4] was “inactive”.

For O=C(CBr)c1ccc(O)cc1, the Potency [1] was inconclusive: 68.6 µM [cytotoxic, single point], the Potency [3] was inconclusive: 21.9 µM and the Potency [6] was inconclusive: 68.6 µM [rising, single point].
